Experimental data as given in the supplement of paper PMC8728848.
The list shows a part of the results.

How the values were obtained:
Assay in all cases: glycan array binding signal (z-score within array); higher = stronger binding
Conditions in all cases: glycan notation: IUPAC condensed, linker removed
[1] = molecular target: Gal(a1-3)[Gal(a1-4)]Gal(b1-4)GlcNAc
Method in brief: (§1)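 Negative Z-scores can be read as non-binding. The Z-score is calculated within each array and then averaged across arrays of one protein sequence at different concentrations or buffers and across linkers. Arrays, 3228 in all, were curated from the Consortium for Functional Glycomics database and kept only where the protein sequence was available.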

[2] = molecular target: Gal(a1-4)Gal(b1-3)GlcNAc(b1-2)Man(a1-3)[Gal(a1-4)Gal(b1-3)GlcNAc(b1-2)Man(a1-6)]Man(b1-4)GlcNAc(b1-4)GlcNAc
Method in brief: as §1

Gal(a1-4)Gal(b1-4)Glc = molecular target: Gal(a1-4)Gal(b1-4)Glc
Method in brief: as §1

Gal(a1-4)Gal(b1-4)GlcNAc = molecular target: Gal(a1-4)Gal(b1-4)GlcNAc
Method in brief: as §1

[3] = molecular target: Gal(a1-4)Gal(b1-4)GlcNAc(b1-2)Man(a1-3)[Gal(a1-4)Gal(b1-4)GlcNAc(b1-2)Man(a1-6)]Man(b1-4)GlcNAc(b1-4)GlcNAc
Method in brief: as §1

[4] = molecular target: Gal(a1-4)Gal(b1-4)GlcNAc(b1-3)Gal(b1-4)Glc
Method in brief: as §1

Gal(a1-4)GlcNAc = molecular target: Gal(a1-4)GlcNAc
Method in brief: as §1

Gal(a1-6)Glc = molecular target: Gal(a1-6)Glc
Method in brief: as §1

Gal(b1-2)Gal = molecular target: Gal(b1-2)Gal
Method in brief: as §1

Gal(b1-3)Gal = molecular target: Gal(b1-3)Gal
Method in brief: as §1

Gal(b1-3)Gal(b1-4)GlcNAc = molecular target: Gal(b1-3)Gal(b1-4)GlcNAc
Method in brief: as §1

Gal(b1-3)GalNAc = molecular target: Gal(b1-3)GalNAc
Method in brief: as §1

[5] = molecular target: Gal(b1-3)GalNAc(a1-3)[Fuc(a1-2)]Gal(b1-4)Glc
Method in brief: as §1

[6] = molecular target: Gal(b1-3)GalNAc(a1-3)[Fuc(a1-2)]Gal(b1-4)GlcNAc
Method in brief: as §1

Gal(b1-3)GalNAc(b1-3)Gal = molecular target: Gal(b1-3)GalNAc(b1-3)Gal
Method in brief: as §1

[7] = molecular target: Gal(b1-3)GalNAc(b1-3)Gal(a1-4)Gal(b1-4)Glc
Method in brief: as §1

[8] = molecular target: Gal(b1-3)GalNAc(b1-4)Gal(b1-4)Glc
Method in brief: as §1

[9] = molecular target: Gal(b1-3)GalNAc(b1-4)[Neu5Ac(a2-3)]Gal(b1-4)Glc
Method in brief: as §1

Gal(b1-3)GlcNAc = molecular target: Gal(b1-3)GlcNAc
Method in brief: as §1

[10] = molecular target: Gal(b1-3)GlcNAc(a1-3)Gal(b1-4)GlcNAc
Method in brief: as §1

[11] = molecular target: Gal(b1-3)GlcNAc(a1-6)Gal(b1-4)GlcNAc
Method in brief: as §1

Gal(b1-3)GlcNAc(b1-2)Man = molecular target: Gal(b1-3)GlcNAc(b1-2)Man
Method in brief: as §1

[12] = molecular target: Gal(b1-3)GlcNAc(b1-2)Man(a1-3)[Gal(b1-3)GlcNAc(b1-2)Man(a1-6)]Man(b1-4)GlcNAc(b1-4)GlcNAc
Method in brief: as §1

[13] = molecular target: Gal(b1-3)GlcNAc(b1-2)Man(a1-3)[Gal(b1-3)GlcNAc(b1-2)Man(a1-6)]Man(b1-4)GlcNAc(b1-4)[Fuc(a1-6)]GlcNAc
Method in brief: as §1

[14] = molecular target: Gal(b1-3)GlcNAc(b1-2)Man(a1-3)[GlcNAc(b1-4)][Gal(b1-3)GlcNAc(b1-2)Man(a1-6)]Man(b1-4)GlcNAc(b1-4)GlcNAc
Method in brief: as §1

[15] = molecular target: Gal(b1-3)GlcNAc(b1-2)[Gal(b1-3)GlcNAc(b1-6)]Man(a1-6)[Gal(b1-3)GlcNAc(b1-2)Man(a1-3)]Man(b1-4)GlcNAc(b1-4)GlcNAc
Method in brief: as §1

[16] = molecular target: Gal(b1-3)GlcNAc(b1-3)Gal(b1-3)GlcNAc
Method in brief: as §1

[17] = molecular target: Gal(b1-3)GlcNAc(b1-3)Gal(b1-4)Glc
Method in brief: as §1

[18] = molecular target: Gal(b1-3)GlcNAc(b1-3)Gal(b1-4)GlcNAc
Method in brief: as §1

[19] = molecular target: Gal(b1-3)GlcNAc(b1-3)Gal(b1-4)GlcNAc(b1-2)Man(a1-3)[Gal(b1-3)GlcNAc(b1-3)Gal(b1-4)GlcNAc(b1-2)Man(a1-6)]Man(b1-4)GlcNAc(b1-4)GlcNAc
Method in brief: as §1

[20] = molecular target: Gal(b1-3)GlcNAc(b1-3)Gal(b1-4)GlcNAc(b1-2)[Gal(b1-3)GlcNAc(b1-3)Gal(b1-4)GlcNAc(b1-6)]Man(a1-6)[Gal(b1-3)GlcNAc(b1-3)Gal(b1-4)GlcNAc(b1-2)Man(a1-3)]Man(b1-4)GlcNAc(b1-4)[Fuc(a1-6)]GlcNAc
Method in brief: as §1

[21] = molecular target: Gal(b1-3)GlcNAc(b1-3)Gal(b1-4)GlcNAc(b1-3)Gal(b1-4)GlcNAc(b1-2)[Gal(b1-3)GlcNAc(b1-3)Gal(b1-4)GlcNAc(b1-3)Gal(b1-4)GlcNAc(b1-6)]Man(a1-6)[Gal(b1-3)GlcNAc(b1-3)Gal(b1-4)GlcNAc(b1-3)Gal(b1-4)GlcNAc(b1-2)Man(a1-3)]Man(b1-4)GlcNAc(b1-4)[Fuc(a1-6)]GlcNAc
Method in brief: as §1

[22] = molecular target: Gal(b1-3)GlcNAc(b1-3)Gal(b1-4)GlcNAc(b1-6)[Gal(b1-3)GlcNAc(b1-3)]Gal(b1-4)Glc
Method in brief: as §1

[23] = molecular target: Gal(b1-3)GlcNAc(b1-3)Gal(b1-4)[Fuc(a1-3)]GlcNAc
Method in brief: as §1

[24] = molecular target: Gal(b1-3)GlcNAc(b1-3)Gal(b1-4)[Fuc(a1-3)]GlcNAc(b1-6)[Gal(b1-3)GlcNAc(b1-3)]Gal(b1-4)Glc
Method in brief: as §1

[25] = molecular target: Gal(b1-3)GlcNAc(b1-3)GalNAc
Method in brief: as §1

[26] = molecular target: Gal(b1-3)GlcNAc(b1-6)Gal(b1-4)GlcNAc
Method in brief: as §1

[27] = molecular target: Gal(b1-3)GlcNAc(b1-6)GalNAc
Method in brief: as §1

B1: SP15308A-bot-339-19-339 (Bacteroides ovatus) (protein)
chain: ACNNEWEDEQYEQYISFKSPIPAGGEGVTDIYVRYKEDGKVTYRLPIVVSGSTTNTLDREVHIAVDKDTLETLNIERFSIHRPGLWYTALEEDKYDFPKTVHISAGSSVEQLNIDFNLQGIDMLEKWVLPLTIVDDPSYNYKSHPRKNYAKALLRVIPFNNYSGSYTSSAMKVYTYINGKPDTNARTANKRTGYVINDNTVFFYAGLISEDLDKEVREKYKINVHFNEDGTLHMEQGDPTNKMKFELIGTPTYSKTSVMDATRPYLERRYVQIMFEYDFEDFSYGGNGVDVIPIKYKVEGSMTLQRNINTQIPDEDQQIEW
glycan array binding signal (z-score) [1]: 1.28 | glycan array binding signal (z-score) [2]: -0.247 | glycan array binding signal (z-score) (Gal(a1-4)Gal(b1-4)Glc): 0.739 | glycan array binding signal (z-score) (Gal(a1-4)Gal(b1-4)GlcNAc): 0.261 | glycan array binding signal (z-score) [3]: 0.55 | glycan array binding signal (z-score) [4]: -0.507 | glycan array binding signal (z-score) (Gal(a1-4)GlcNAc): 0.096 | glycan array binding signal (z-score) (Gal(a1-6)Glc): 0.432 | glycan array binding signal (z-score) (Gal(b1-2)Gal): 0.055 | glycan array binding signal (z-score) (Gal(b1-3)Gal): 0.251 | glycan array binding signal (z-score) (Gal(b1-3)Gal(b1-4)GlcNAc): -0.593 | glycan array binding signal (z-score) (Gal(b1-3)GalNAc): -0.057 | glycan array binding signal (z-score) [5]: -0.521 | glycan array binding signal (z-score) [6]: -0.695 | glycan array binding signal (z-score) (Gal(b1-3)GalNAc(b1-3)Gal): -0.698 | glycan array binding signal (z-score) [7]: -0.489 | glycan array binding signal (z-score) [8]: -0.149 | glycan array binding signal (z-score) [9]: -0.5 | glycan array binding signal (z-score) (Gal(b1-3)GlcNAc): 0.061 | glycan array binding signal (z-score) [10]: 0.217 | glycan array binding signal (z-score) [11]: -0.414 | glycan array binding signal (z-score) (Gal(b1-3)GlcNAc(b1-2)Man): 2.76 | glycan array binding signal (z-score) [12]: 0.261 | glycan array binding signal (z-score) [13]: -0.152 | glycan array binding signal (z-score) [14]: -0.153 | glycan array binding signal (z-score) [15]: -0.325 | glycan array binding signal (z-score) [16]: 0.024 | glycan array binding signal (z-score) [17]: -0.437 | glycan array binding signal (z-score) [18]: 0.03 | glycan array binding signal (z-score) [19]: 0.086 | glycan array binding signal (z-score) [20]: 0.558 | glycan array binding signal (z-score) [21]: 0.752 | glycan array binding signal (z-score) [22]: 0.016 | glycan array binding signal (z-score) [23]: -0.575 | glycan array binding signal (z-score) [24]: 0.183 | glycan array binding signal (z-score) [25]: 0.029 | glycan array binding signal (z-score) [26]: -0.558 | glycan array binding signal (z-score) [27]: 0.162
